Measured values as given in PMC6919601, “Identification of Plasmodium dipeptidyl aminopeptidase allosteric inhibitors by high throughput screening” (PLoS ONE, 2019).
In all, about 110,000 compounds went through this assay and about 230 (0.21%) showed an effect of 50% or more. The list shows a part of the results.

These molecules were tested against DPAP1 (Plasmodium falciparum, UniProt Q8IIJ9) (assay: primary screen, percent inhibition; read by cleavage of a fluorogenic dipeptide substrate; higher = more effect of the substance).
DPAP1, sequence (Q8IIJ9 whole entry, looked up): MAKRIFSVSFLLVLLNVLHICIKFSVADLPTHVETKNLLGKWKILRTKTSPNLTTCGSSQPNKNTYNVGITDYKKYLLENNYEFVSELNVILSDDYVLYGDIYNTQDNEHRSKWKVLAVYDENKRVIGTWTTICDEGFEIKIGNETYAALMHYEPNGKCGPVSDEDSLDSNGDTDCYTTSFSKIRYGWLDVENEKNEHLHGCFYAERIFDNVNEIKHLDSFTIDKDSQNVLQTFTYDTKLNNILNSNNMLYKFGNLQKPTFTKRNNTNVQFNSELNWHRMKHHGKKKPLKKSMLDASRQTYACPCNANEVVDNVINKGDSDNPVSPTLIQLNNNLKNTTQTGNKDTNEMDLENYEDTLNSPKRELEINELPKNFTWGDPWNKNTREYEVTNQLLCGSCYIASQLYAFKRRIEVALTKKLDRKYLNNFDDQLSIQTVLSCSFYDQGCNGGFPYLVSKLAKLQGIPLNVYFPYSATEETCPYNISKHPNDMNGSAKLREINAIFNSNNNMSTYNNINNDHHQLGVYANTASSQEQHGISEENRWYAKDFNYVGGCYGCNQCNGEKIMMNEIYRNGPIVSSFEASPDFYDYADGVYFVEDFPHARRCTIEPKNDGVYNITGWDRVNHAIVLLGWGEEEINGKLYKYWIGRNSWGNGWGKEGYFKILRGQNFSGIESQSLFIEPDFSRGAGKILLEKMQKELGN
Design: species or system P. falciparum D10 trophozoite lysates; single well
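Further: 30 min substrate incubation versus DMSO and 10 µM JCP410 controls.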

SMILES	% Inhibition @ 10 uM
Cc1nc(O)c(-c2ccccc2)c(O)c1C(=O)c1ccccc1	2.11%
CCCCOc1cccc(CN2CCCCC2c2cccnc2)c1 (centres unmarked)	-6.69%
COc1ccc(N2CCn3c2nc2c3c(=O)n(C/C=C(/C)Cl)c(=O)n2C)cc1	-0.413%
O=c1c(Cl)c(NCc2ccc(F)cc2Cl)cnn1C12CC3CC(CC(C3)C1)C2	1.86%
O=C(Nc1c(O)c2ccccc2oc1=O)c1ccco1	4.95%
Brc1ccccc1OCCCCCN1CCCCC1	0.135%
CC(C)OC(=O)C1=c2s/c(=C\c3cccnc3)c(=O)n2C(N)=C(C#N)C1c1cccnc1 (centres unmarked)	0.147%
O=C(Nc1cccc([N+](=O)[O-])c1)c1cc(S(=O)(=O)Nc2ccccc2)ccc1Cl	1.64%
CCCCCOc1ccc(C(=O)N(Cc2ccc(OC)cc2)C2CCS(=O)(=O)C2)cc1 (centres unmarked)	-1.18%
C1=C(c2ccc(-c3ccccc3)cc2)N2CCN=C2S1	-7.56%
COc1cccc(NC(=O)CN(Cc2ccccc2)S(C)(=O)=O)c1	-1.52%
O=C(Cn1c(=O)c2cccn2c2cccnc21)NCc1ccccc1	1.63%
CC(CCc1ccccc1)NC(=O)c1cnc2ccccn2c1=O (centres unmarked)	1.72%
CC(C)NC(=O)CCc1nc(-c2ccc(C(C)(C)C)cc2)no1	-1.35%
COc1ccccc1CN1CCN(Cc2ccccc2F)CC1	1.92%
O=C(c1ccc(S(=O)(=O)N2CCCCC2)cc1)n1cnc2ccccc21	0.147%
Cc1[nH]c2ccccc2c1CC1C(=O)N(C)C(=O)N(C)C1=O	-1.46%
COc1cccc(C(=O)N2N=C(C(F)(F)F)CC2(O)c2ccncc2)c1 (centres unmarked)	-3.95%
Cc1c(CN2CCCC2)c(O)n(Cc2ccccc2)c(=O)c1C#N	-3.07%
O=C(O)c1nccnc1C(=O)Nc1ccccn1	-1.08%
COc1ccc(Cc2nnc(SCC(N)=O)n2-c2ccccc2)cc1Cl	0.00706%
Cc1c(C(=O)NCc2ccccc2)cnn1-c1ccccc1	5.39%
COCCCNc1ncnc2sc3c(c12)CCC(C)C3 (centres unmarked)	-2.65%
COc1cc2c(cc1OC)CN(Cc1ccc(C)s1)CC2	-2.21%
Cc1cc(=O)n2nc(N(C)CC(=O)NC3CCCCCC3)sc2n1	-2%

SMILES	% Inhibition @ 10 uM
Cc1nc2c3ccccc3nc(SCC(=O)NCCc3ccc(S(N)(=O)=O)cc3)n2n1	3.38%
c1ccc(-c2cn3c4ccccc4nc3n2CCN2CCCCC2)cc1	-3.32%
Cc1ccccc1NC(=O)c1cc2ccccc2oc1=O	4.12%
Cc1c(C(=O)N2CCCC2)cccc1[N+](=O)[O-]	-0.856%
CCN(CCCc1ccccc1)CCN(C)C	-5.26%
NC(=O)CSc1nc(SCC(N)=O)c2c3c(sc2n1)CN(Cc1ccccc1)CC3	-4.33%
COc1cc(Br)cc(C=O)c1O	3.66%
O=C(Nc1nc(-c2ccc(S(=O)(=O)N3CCOCC3)cc2)cs1)C1COc2ccccc2O1 (centres unmarked)	1.64%
O=c1c2cc3c(=O)n(-c4ccccc4O)c(=O)c3cc2c(=O)n1-c1ccccc1O	-0.0369%
CN(Cc1ccccc1)C(=O)CN(C)S(=O)(=O)c1ccc2[nH]c3c(c2c1)CCCC3	-3.6%
Cc1ccc2oc3c(c(=O)c2c1)C(c1ccc(O)cc1)N(CCCN1CCOCC1)C3=O (centres unmarked)	-2.91%
CCOc1ccc2ccccc2c1/C=C1/NC(=O)N(c2ccccc2)C1=O	0.722%
CN(CC(=O)NCc1ccc(Cl)cc1)c1nnc(N2CCCC2=O)s1	-6.38%
CCc1nc(NC(=O)NS(=O)(=O)c2ccccc2C(=O)OC)nc(OC)n1	13.3%
FC(F)Oc1ccccc1C1C=C(c2ccc(Cl)cc2)Nc2ncnn21 (centres unmarked)	4.86%
COc1ccc(C(=O)/C=C/c2ccc([N+](=O)[O-])cc2)cc1	-3.58%
Cc1cccc(NC(=O)CN2C(=O)C3C4C=CC(C4)C3C2=O)c1C (centres unmarked)	5.49%
CCOC(=O)c1cc2c(C)nn(-c3ccccc3)c2s1	4.17%
COc1ccc(NC(=O)Nc2ccc(OC)cc2)cc1	-0.0494%
CCSCCOC(=O)C1=C(C)N(C)C(=O)NC1c1ccc(OC)cc1 (centres unmarked)	-2.87%
Cc1ccc(N2C(=O)NC(=O)/C(=C/Nc3ccc(Br)cn3)C2=O)cc1	2.36%
Cc1cc(C)c2c(n1)nn1c(C)c(CCC(=O)NCCc3ccc(Cl)cc3)c(C)nc21	7.05%
N#CCCN1CCN(S(=O)(=O)c2ccc(S(N)(=O)=O)cc2)CC1	-1.82%
Cc1ccc(CSc2nc(=O)c3c(n2C)NC(=O)CC3c2ccccc2OC(C)C)cc1 (centres unmarked)	3.84%
CC(C)c1nc2ccccc2n1Cc1ccccc1F	1.12%

SMILES	% Inhibition @ 10 uM
CCc1ccc(/C=c2\sc3nc(-c4ccc(OC)c(OC)c4)nn3c2=O)cc1	-2.98%
CCCCNC(=O)CCc1c(C)nc2c(c(C)nn2-c2ccc(C)cc2)c1C	4.14%
Cc1cc(NC(=O)C23CC4CC(C2)CC(n2cncn2)(C4)C3)ccc1Br	7.76%
CCCCN(CC)CCNC(=O)C1c2ccccc2C(=O)N(CCOC)C1c1ccc(F)cc1 (centres unmarked)	-2.9%
CC(Oc1ccccc1)C(=O)N1CCN(c2cccc(Cl)c2)CC1 (centres unmarked)	-3.19%
COc1cccc2cc(-c3nc(-c4nonc4N)no3)c(=O)oc12	-5.05%
NC(=O)c1c(NC(=O)COc2ccccc2Br)sc2c1CCCC2	-2.66%
CC1CC(C)CN(C(=O)CSc2nnc(-c3ccccc3)o2)C1 (centres unmarked)	2.42%
Cc1ccc(N(CC(O)CN2CCOCC2)S(=O)(=O)c2ccc(C)cc2)cc1 (centres unmarked)	-4.5%
CCN1C(=O)/C(=C\c2ccc(N(C)C)cc2)C(C(=O)OC)=C1C	-1.32%
CCCC1C2CC=CC2c2cc(C(=O)O)ccc2N1C(=O)c1cccc([N+](=O)[O-])c1 (centres unmarked)	1.08%
CCOC(=O)C1CCCN(Cc2ccc(Cl)cc2)C1 (centres unmarked)	-1.86%
CN1C(=O)CC(N2CCN(c3ncccn3)CC2)C1=O (centres unmarked)	-3.48%
O=c1c2ccccc2nc2n1CCS2	-7.15%
COc1ccc(N(CC(=O)NC(C)C)S(=O)(=O)c2ccc(C)cc2)c(OC)c1	-1.43%
CCOC(=O)C1=CN(C(C)C)C=C(C(=O)OCC)C1c1ccc(F)c(Br)c1	-1.48%
Cc1cc(NC(=O)Nc2cccs2)no1	0.596%
Cc1ccc(CS(=O)(=O)c2cn(CC(=O)N(C)Cc3ccccc3)c3ccccc23)cc1	-4.89%
CCOC(=O)c1c(C)oc2cc(Cl)c(OC)c(OC)c12	-5.59%
Cc1ccc(-c2nc(CS(=O)CC(=O)NCCCOC(C)C)c(C)o2)cc1 (centres unmarked)	-2.85%
CCOC(=O)C1C(=O)CC(O)(c2ccc(Br)cc2)CC1C=C(Cl)Cl (centres unmarked)	0.035%
CC(C)N1C(=O)S/C(=C/c2ccc(N3CCCCC3)o2)C1=O	-1.28%
CC(C)c1ccc(NC(=O)C2C3C=CC(CC3)C2C(=O)O)cc1 (centres unmarked)	-1.04%
COc1cccc(CN2CCN(c3ccc(F)cc3)CC2)c1	1.48%
COC(=O)C1=CN(CC2CCCO2)C=C(C(=O)OC)C1c1ccc2c(c1)OCO2 (centres unmarked)	1.84%

SMILES	% Inhibition @ 10 uM
O=c1c(-c2ccccc2)c(N2CCN(Cc3ccccc3)CC2)c1=O	0.589%
Nc1c(-c2nc(-c3cccnc3)no2)nnn1-c1ccccc1C(F)(F)F	-0.759%
COCCCN1CN(CCc2ccccc2)CNC1=S	-1.92%
COC(=O)c1cc2oc(C)cc2n1CC(=O)NCc1ccco1	-11.9%
CC(=O)N(CN1C(=O)c2ccccc2C1=O)c1ccccc1C	2.27%
Cc1ccc(S(=O)(=O)NCC2CCC(C(=O)NCc3ccc(Cl)cc3)CC2)cc1 (centres unmarked)	2.35%
Cc1cc(Cl)ccc1OCc1cc(C2C(C#N)=C(N)Oc3[nH]nc(C)c32)sc1C (centres unmarked)	3.99%
CC1(C)CC(=O)C2=C(C1)c1c(ccc3ccccc13)NC2c1ccc(-c2ccc(Br)cc2)o1 (centres unmarked)	-4.3%
Cc1nc2cccnc2n1-c1ccc(C(=O)NC2CCCCC2C)cc1 (centres unmarked)	-0.0668%
O=C(Cc1ccc(F)cc1F)Nc1ccccc1	6.14%
CCOC(=O)N1CCC(NC(=O)CS(=O)(=O)Cc2nc(-c3cccc(Cl)c3)oc2C)CC1	14.4%
O=C(CCN1C(=O)c2ccccc2C1=O)N1CCN(c2ccccc2)CC1	5.31%
CC1CCN(C(=O)CN(c2ccc(Cl)cc2Cl)S(=O)(=O)c2ccccc2)CC1	-2.03%
O=C(NCCC1=CCCCC1)c1cc2c(s1)CS(=O)(=O)C2	-6.79%
COc1ccc(Br)cc1/C=C1\Cc2ccccc2C1=O	4.06%
Cc1ccc(S(=O)(=O)N2CCCC2C(=O)Nc2nc3c(s2)CCCC3)cc1 (centres unmarked)	-3.92%
CCOC(=O)N1CCN(C(=O)/C(=C\c2ccc3c(c2)OCO3)NC(=O)c2cccs2)CC1	-2.54%
O=C1NC(c2cccc(O)c2)C(C(=O)c2cccnc2)C(O)(C(F)(F)F)N1 (centres unmarked)	-5%
Cc1ccc(-c2nc3c4cnn(-c5c(F)c(F)cc(F)c5F)c4ncn3n2)cc1	-4.64%
CC(=O)N[C@H]1[C@H](Oc2cccc(C)c2)O[C@@H]2COC(C)(C)O[C@H]2[C@@H]1O	4%
COc1ccccc1N1CCN(C(=O)CN(CCc2ccccc2)S(C)(=O)=O)CC1	0.408%
CC(=O)N1CC[C@@]2(O)CCCC[C@@H]2[C@H]1c1cccc(Cl)c1Cl	-1.07%
O=CN1CCN(C(=O)CCCC(=O)c2ccccc2)CC1	-1.68%
